Screen size: about 310,000 compounds; about 2,200 (0.71%) showed an effect of 50% or more. Effects have a minus sign here. The list shows a part of the results.
target: human ether-à-go-go-related gene (hERG) potassium channel (human, UniProt Q12809); test: primary screen, population patch clamp on CHO cells stably expressing hERG
Sequence (Q12809 whole entry, looked up): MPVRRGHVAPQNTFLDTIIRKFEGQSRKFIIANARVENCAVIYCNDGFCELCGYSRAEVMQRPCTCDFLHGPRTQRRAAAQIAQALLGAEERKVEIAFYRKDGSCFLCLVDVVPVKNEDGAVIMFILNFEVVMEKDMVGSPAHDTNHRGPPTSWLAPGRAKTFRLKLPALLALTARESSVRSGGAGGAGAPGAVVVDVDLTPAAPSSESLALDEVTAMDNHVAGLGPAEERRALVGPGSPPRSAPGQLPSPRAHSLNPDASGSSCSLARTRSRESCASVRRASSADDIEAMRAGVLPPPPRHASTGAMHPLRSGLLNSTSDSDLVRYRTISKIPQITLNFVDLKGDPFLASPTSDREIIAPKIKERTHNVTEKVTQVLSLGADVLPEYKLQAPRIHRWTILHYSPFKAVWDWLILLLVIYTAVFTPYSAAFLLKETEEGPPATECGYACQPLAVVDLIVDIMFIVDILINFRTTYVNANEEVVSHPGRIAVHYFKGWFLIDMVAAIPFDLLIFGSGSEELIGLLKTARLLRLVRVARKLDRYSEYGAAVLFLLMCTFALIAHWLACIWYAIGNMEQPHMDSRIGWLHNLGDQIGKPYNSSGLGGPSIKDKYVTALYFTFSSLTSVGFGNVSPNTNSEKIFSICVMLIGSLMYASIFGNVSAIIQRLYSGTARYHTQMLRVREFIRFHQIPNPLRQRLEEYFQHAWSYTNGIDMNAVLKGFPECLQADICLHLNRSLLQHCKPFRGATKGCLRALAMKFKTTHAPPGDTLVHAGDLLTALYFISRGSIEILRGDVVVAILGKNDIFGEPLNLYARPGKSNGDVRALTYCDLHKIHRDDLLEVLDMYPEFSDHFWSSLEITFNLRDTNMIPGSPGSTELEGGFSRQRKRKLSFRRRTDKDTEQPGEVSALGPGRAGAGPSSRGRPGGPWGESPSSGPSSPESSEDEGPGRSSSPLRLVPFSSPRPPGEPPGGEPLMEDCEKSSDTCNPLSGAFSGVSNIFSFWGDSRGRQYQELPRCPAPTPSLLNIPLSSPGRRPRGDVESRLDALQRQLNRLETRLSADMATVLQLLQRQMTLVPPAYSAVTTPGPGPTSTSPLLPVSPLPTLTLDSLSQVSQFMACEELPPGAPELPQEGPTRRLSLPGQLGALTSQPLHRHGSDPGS

Row | SMILES | hERG current change (%, negative = inhibition) at 1uM
1 | CC(=O)c1cccc(N(C(=O)c2ccco2)C(C(=O)NC2CCCC2)c2ccncc2)c1 (centres unmarked) | 2.4%
2 | O=C(c1ccccc1)c1cn(CC(=O)N2CCOCC2)c2ccccc12 | 7.17%
3 | Cc1cccc(-n2c(C)nc3ccccc3c2=O)n1 | -0.868%
4 | CC(C)CC(=O)N(Cc1ccc(F)cc1)C1CCS(=O)(=O)C1 (centres unmarked) | 15.7%
5 | CC(=O)c1ccc(N2Cc3ccccc3C2)cc1 | 8.02%
6 | Cn1c(=O)cc(SCC(=O)Nc2ccc3c(c2)OCO3)c2ccccc21 | 14.7%
7 | O=C1CCC(=O)N1c1ccc(CSc2nc3ccccc3[nH]2)cc1 | 5.47%
8 | COc1ccc(C(=O)NNC2=CC(=O)CC(C)(C)C2)cc1OC | 8.4%
9 | O=C(O)CC1SC(=O)NC1=O (centres unmarked) | 8.82%
10 | CCOC(=O)C(C)C1(O)c2ccccc2-c2ncccc21 (centres unmarked) | -1.12%
11 | Cc1ccc(SCCOCCN2CCOCC2)cc1.Cl | 16%
12 | CC(Oc1ccccc1F)C(=O)Nc1ccc2ccccc2c1 (centres unmarked) | 6.35%
13 | NNC(=O)C1CC(O)CN1S(=O)(=O)c1ccc(Cl)cc1 (centres unmarked) | 6.56%
14 | Cc1ccc(-n2nc3ccc(N)cc3n2)cc1 | 2.75%
15 | Cc1ccc(C)c(N2CCN(C(=O)C3CCCN(S(=O)(=O)c4c(C)[nH]c(=O)[nH]c4=O)C3)CC2)c1 (centres unmarked) | 9.86%
16 | Cc1ccc(-c2csc(CC(N)=O)n2)cc1 | 5.33%
17 | COC(=O)CC1C(=O)NCCN1C(=O)c1ccc(Cl)cc1 (centres unmarked) | 8.55%
18 | CSc1nnc(C)c(/C=C/Nc2ccc(F)cc2F)n1 | 7.44%
19 | O=C(NCc1ccccn1)c1ccc(Cl)cc1Cl | 2.43%
20 | Cc1nn(-c2ccccc2)c(C)c1/C=N/NC(=O)c1cc(C23CC4CC(CC(C4)C2)C3)[nH]n1 | 9.06%
21 | CCCCn1c(N)c(N(CCOC)C(=O)COC(=O)c2ccccc2OCC)c(=O)[nH]c1=O | 12.2%
22 | COc1ccc(OC)c(NC(=O)c2cccc(S(=O)(=O)N3CCN(C(C)=O)CC3)c2)c1 | 9.14%
23 | COC(=O)c1c(NC(=O)C2CCCCC2)sc2c1CC(C)(C)NC2(C)C | 7.9%
24 | Cc1cccnc1NC(=O)c1sc2ccccc2c1Cl | 9.67%
25 | Cc1ccc(-c2[nH]ncc2CN2CCN(C(=O)c3cccs3)CC2)cc1C | -4.17%
26 | CN(C)c1nc(N)nc(CSc2n[nH]c(-c3ccccc3)n2)n1 | 6.32%
